Reference: PMC6919601, “Identification of Plasmodium dipeptidyl aminopeptidase allosteric inhibitors by high throughput screening” (PLoS ONE, 2019)
The campaign covered roughly 110,000 compounds. About 230 (0.21%) showed an effect of 50% or more. Some of the results follow.

Each compound was assayed against DPAP1 (Plasmodium falciparum, UniProt Q8IIJ9) (assay: primary screen, percent inhibition; read by cleavage of a fluorogenic dipeptide substrate; higher = more effect of the substance).
Set-up: species or system P. falciparum D10 trophozoite lysates; single well
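Note: 30 min substrate incubation versus DMSO and 10 µM JCP410 controls.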

Sequence of DPAP1 (Q8IIJ9 whole entry, looked up): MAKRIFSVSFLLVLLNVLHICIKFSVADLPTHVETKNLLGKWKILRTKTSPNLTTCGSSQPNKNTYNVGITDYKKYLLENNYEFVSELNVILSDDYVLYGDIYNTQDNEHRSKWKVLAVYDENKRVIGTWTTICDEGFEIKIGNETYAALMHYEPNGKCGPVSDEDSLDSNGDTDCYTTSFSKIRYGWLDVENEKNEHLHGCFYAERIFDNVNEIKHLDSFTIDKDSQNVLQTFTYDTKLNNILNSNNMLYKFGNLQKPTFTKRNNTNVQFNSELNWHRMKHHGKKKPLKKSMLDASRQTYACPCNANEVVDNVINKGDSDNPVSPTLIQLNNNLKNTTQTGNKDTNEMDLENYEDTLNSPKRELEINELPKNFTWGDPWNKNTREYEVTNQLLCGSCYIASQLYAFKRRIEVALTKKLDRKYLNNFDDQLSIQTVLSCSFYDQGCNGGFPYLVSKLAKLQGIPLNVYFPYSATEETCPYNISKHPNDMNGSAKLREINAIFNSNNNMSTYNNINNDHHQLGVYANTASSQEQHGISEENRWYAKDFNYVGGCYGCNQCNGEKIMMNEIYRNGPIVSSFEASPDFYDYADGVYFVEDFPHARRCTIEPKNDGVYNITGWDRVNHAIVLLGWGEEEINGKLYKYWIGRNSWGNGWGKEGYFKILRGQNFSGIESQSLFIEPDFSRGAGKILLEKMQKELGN

SMILES	% Inhibition @ 10 uM [%]
O=C1CCCN2N=C(SCC(=O)N3N=C(c4cccs4)CC3c3ccc(F)cc3)SC2=N1 (centres unmarked)	11.6
CCN(CC)C(=O)Cn1c(=O)n(CCCC(=O)NCc2ccc(C)cc2)c(=O)c2sccc21	-4.43
COC(=O)C1=C(C)OC(N)=C(C#N)C1c1ccccc1F (centres unmarked)	5.85
CCOc1ccc(CCNC(=O)c2cc3c(C)nccc3nc2O)cc1OCC	-4.53
O=C(CCn1cncn1)N1CCN(S(=O)(=O)c2ccccc2)CC1	0.895
COc1ccc(C)cc1N(CC(=O)N1CCc2ccccc2C1)S(C)(=O)=O	-5.82
COc1ccccc1OCCOc1ccccc1OC	7.5
COc1ccc(C(=O)Nc2cc(-c3ccccc3)nn2C(=O)c2ccc(OC)cc2)cc1	1.84
OC1CCCCC1C1(NC(=S)Nc2ccccc2)CCCCC1 (centres unmarked)	3.16
CCCc1[nH]nc2c1C(c1c[nH]nc1-c1ccc(F)cc1)C(C#N)=C(N)O2 (centres unmarked)	0.658
O=CN1CCN(Cc2ccc(Br)cc2)CC1	-4.14
C=CCNC(=O)/C(C#N)=C/c1c(Oc2ccccc2)nc2ccccn2c1=O	-5.11
COc1ccc(N2CCN(Cc3ccc(OC)cc3OC)CC2)cc1	3.01
COc1ccc(Br)cc1C1C2=C(O)CCCC2=NC2=C1C(=O)CCC2 (centres unmarked)	-1.16
Cc1ccc(NC(=O)CSc2nc(N)c3c4c(sc3n2)COC(C(C)C)C4)cc1 (centres unmarked)	18.6
Cc1ccc(OCC(=O)N(Cc2ccco2)Cc2ccccc2Cl)cc1	-14.2
COc1ccc(CN2CCCCC2)c(C)c1C	1.74
COc1ccc(-c2[nH]nc3c2C(c2cccs2)C2=C(O)CC(C)(C)CC2=N3)cc1 (centres unmarked)	12.2
CCOCCCNC(=O)C1c2ccccc2C(=O)N(CCOC)C1c1c[nH]c2ccccc12 (centres unmarked)	-4.66
COc1ccc(S(=O)(=O)NCc2ccccc2Cl)cc1Br	-2.32
Cn1c(SCc2nc(-c3ccc(Cl)cc3)no2)nnc1-c1ccccc1	-2.21
N#CC1Cn2ccc3cccc(c32)C1=O (centres unmarked)	-4.23
CCCNCc1c(C(=O)O)n(Cc2ccc(C)cc2)c2ccccc12	5.09
CC(NC(=O)CCn1c(=O)c2cccn2c2cccnc21)C12CC3CC(CC(C3)C1)C2 (centres unmarked)	2.83
CCC[C@@H](/C=C/S(=O)(=O)c1ccccc1)NC(=O)[C@@H](Cc1ccccc1Cl)NC1=NS(=O)(=O)c2ccccc21	0.079

SMILES	% Inhibition @ 10 uM [%]
CCN(CC)CCCNC(=O)c1cnn2c(C)c(Cc3c(C)cc(C)cc3C)c(C)nc12	-5.8
COCCn1c(C)cc(/C=C2/NC(=O)N(Cc3ccccc3F)C2=O)c1C	-2.04
NC(=O)c1nn(-c2ccccc2)nc1NC(=O)COc1nsnc1N1CCOCC1	-2.19
COc1ccc(CN2C(=O)c3cccnc3C2=O)cc1S(=O)(=O)NCc1cccnc1	2.09
O=C(NCCCC[C@H](NC(=O)[C@H](Cc1ccc2ccccc2c1)NC(=O)OCc1ccccc1)C(=O)C[N+](=O)[O-])OCc1ccccc1	-6.56
CCOC(=O)c1c(NC(=O)c2cc(=O)c3cc(C)ccc3o2)sc(C)c1C	0.248
CCC(C)NC(=O)Cn1ncc2c(C)n(Cc3ccccc3F)c(C)c2c1=O (centres unmarked)	-2.17
Cc1onc(-c2ccccc2Cl)c1C(=O)Nc1nnc(Cc2ccc(Cl)cc2)s1	-6.69
CN1CCC(N(C)Cc2ccccc2C(F)(F)F)CC1	-0.197
Cc1cccc(CN2CCC(CNC(=O)Cn3ncc4c5ccccc5nc-4c3O)CC2)c1	1.9
CC(=O)Nc1ccc(CN2CCN(c3ccccc3F)CC2)cc1	-1.07
Cc1ccc(S(=O)(=O)Nc2ccccc2C2=N[C@@H](C(C)C)CO2)cc1	-3.25
O=C(Nc1ccccc1)c1ccncc1	-1.45
CC1=C(C(=O)OCc2ccccc2)C(c2ccc(N(C)C)cc2)NC(S)=N1 (centres unmarked)	-4.21
C=CCNC(=O)c1cc(-c2cc(OC)ccc2OC)on1	0.0221
O=C(CCc1ccccc1)NCc1nc(-c2ccccc2)no1	0.486
COc1cc(OC)cc(C(=O)N2CCN(C3CCN(Cc4ccccc4)CC3)CC2)c1	8.09
CC(NC(=O)c1ccco1)c1cc2c(cc1Br)OCCCO2 (centres unmarked)	5.39
COCCn1c(SCC(=O)NCC2CCCO2)nc2c(c1=O)SCC2 (centres unmarked)	-4.16
CCOC(=O)c1cc(C(C)=O)n2ccccc12	-3.85
Nc1ccc(-c2nc3cc(-c4nc5cc(N)ccc5[nH]4)ccc3[nH]2)cc1	1.64
CC1CCN(S(=O)(=O)N2CCCC(C(=O)N3CCN(c4ncccn4)CC3)C2)CC1 (centres unmarked)	1.25
CCOC(=O)N1CCN(C(=O)C2CCCN(c3ncnc4c3nc3n4CCCCC3)C2)CC1 (centres unmarked)	8.12
Cn1c(=O)c2c(nc(CN3CCCCC3)n2CCCO)n(C)c1=O	-3.46
COc1ccc2c(Sc3ccccc3)c(C(=O)N3CCCCC3)[nH]c2c1	-2.61

SMILES	% Inhibition @ 10 uM [%]
COc1ccc(C(=O)Nc2sc(C)c(C)c2C(N)=O)cc1OC	0.431
CCOc1c(Br)cc(/C=C2\SC(=O)N(C)C2=O)cc1OC	5.37
Cn1c2c(s/c1=N\C(=O)c1cccnc1)CCc1ccccc1-2	1.86
COc1ccc(/C=C/c2nc(C#N)c(NCc3cccnc3)o2)cc1OC	5.68
Cc1ccc(-c2csc(/C(C#N)=C\c3ccc(F)cc3)n2)cc1	-4.4
Cc1ccc(/C=c2\sc3nnc(-c4ccccc4C)n3c2=O)cc1	1.62
FC(F)(F)c1cc(NCc2ccccc2)nc(-c2ccccc2)n1	5.09
O=[N+]([O-])c1ccc(-c2nc(-c3ccccc3)no2)c(Cl)c1	3.32
O=C1CCN(C(=O)c2ccccc2)[C@@H]2CCCC[C@H]12	1.4
O=C1NC(=S)N(c2ccc(Cl)cc2)C(=O)/C1=C/c1ccc2c(c1)OCO2	4.88
COc1ccccc1/C=C/C1=CCN(C)CC1	2.58
Cc1ccc2nc(C)c(CN(C)C3CCCCC3)c(O)c2c1	2.39
CC(C)(C)C1CCc2c(sc(NC(=O)COc3ccc(F)cc3)c2C(N)=O)C1 (centres unmarked)	6.65
CCc1ccccc1NC(=O)Cn1cnc2ccccc2c1=O	-4.62
CCC(Cc1ccccc1)/N=c1/c(-c2ccccc2)c(O)c1=O (centres unmarked)	-2.28
c1ccc2c(c1)nnn2Cc1nnc2sc(-c3ccc4c(c3)OCCO4)nn12	19
COC(=O)NCc1ccc(CNC(=O)OC)cc1	-2.9
Cn1c(=O)[nH]c(=O)c2c1nc(N1CCCCC1)n2CC(O)COc1cccc2ccccc12 (centres unmarked)	-10.9
COc1cc(NC(=O)c2ccnn2C)c(OC)cc1Cl	-10.8
CCCC[C@H](NC(=O)[C@@H](NC(=O)OCc1ccccc1)[C@@H](C)CC)C(=O)CO	2.22
CCn1c2ccccc2c2cc(CN3CCCN(C)CC3)ccc21	1.48
COc1ccc(-c2cn3c(n2)sc2cc(C(=O)N4CCC5(CC4)OCCO5)ccc23)cc1	32.8
Cc1cc(Cl)ccc1OC(C)C(=O)NCC1CCCO1 (centres unmarked)	-1.06
COc1ccc(CN2CCCC(C(=O)N3CCCCCC3)C2)cc1 (centres unmarked)	-2.98
CCOc1ccccc1C(=O)Nc1ccc(Cl)cc1F	6.69

SMILES	% Inhibition @ 10 uM [%]
CC(=O)Nc1ccc(NC(=O)CN(C)S(=O)(=O)c2cc(Cl)ccc2Cl)cc1	-11.5
COC(=O)c1cccnc1-c1ncccc1C(=O)OC	-3.92
COC(=O)C1=CN(C2CC2)C=C(C(=O)OC)C1c1cc(Br)c(OC)c(OC)c1	-5.17
COc1ccc(C2=NN(Cc3c(F)cccc3Cl)C(=O)CC2)cc1	2.35
CNc1ncc(Br)nc1Br	-2.83
COc1ccc2c(c1OC)C(=O)N(C(C)C(=O)O)C2=O (centres unmarked)	-3.19
COc1cc(NC(=O)c2cc3ccccc3o2)ccc1NC(=O)c1ccco1	-7.76
Cc1ccc(C(=O)Nc2ccc(C)cc2Br)cc1	4.6
O=C(Cc1ccc(F)cc1F)Nc1ccc(Cl)cc1	-2.54
CC(C)Cn1c(CCCNC(=O)c2ccccc2)nc2ccccc21	4.77
CCOC(=O)C1CCCCN1C1CCCC(C)C1 (centres unmarked)	-3.6
Cc1ccc(Cn2c(=O)c3ccccc3n3c(CCC(=O)N4CCC(C)CC4)nnc23)cc1	-2.42
COc1ccccc1Oc1ccc(S(=O)(=O)Nc2ccncc2)cc1	-6.74
O=[N+]([O-])c1cccc(CN2CCC(O)CC2)c1	-3.95
CN(C)CCNC(=O)CCn1nc(-c2ccc(Cl)cc2)ccc1=O	1.62
CCCCCC(=O)Nc1ncc2c(n1)CC(c1cccc(Cl)c1)CC2=O (centres unmarked)	3.43
COCCNC(=O)CSc1[nH]c(-c2ccc(OC)c(OC)c2)nc1-c1ccc(C)cc1	0.163
CCC(C)[C@H](NC(=O)c1cccc(CNC(=O)OC(C)(C)C)c1)C(=O)N[C@@H](CCc1ccccc1)C(=O)CNS(=O)(=O)c1ccc2oc3ccccc3c2c1 (some centres unmarked)	3.66
COc1ccc(OC)c(NC(=O)c2sc3nc4c(cc3c2N)CCCCC4)c1	2.84
CC(C)(Oc1cccc2c1sc1ccccc12)C(=O)O	3.69
COc1ccc(/N=C2/S/C(=C\c3ccc(O)c(OC)c3)C(=O)N2C)cc1	16.4
COCCNC(=O)C1c2ccccc2C(=O)N(C)C1c1cccs1 (centres unmarked)	-3.27
O=C(c1ccc(CNS(=O)(=O)c2ccccc2)cc1)N1CCC2(CC1)OCCO2	-0.00718
